{"source": "the supplement of paper PMC8728848", "binders": {"B1": {"name": "UDA (Urtica dioica), P11218 (protein)", "chain": "MMMRFLSAVVIMSSAMAVGLVSAQRCGSQGGGGTCPALWCCSIWGWCGDSEPYCGRTCENKCWSGERSDHRCGAAVGNPPCGQDRCCSVHGWCGGGNDYCSGSKCQYRCSSSVRGPRVALSGNSTANSIGNVVVTEPLFDQMFSHRKDCPSQGFYSYHSFLVAAESFPAFGTIGDVATRKREVAAFLAHISQATSGERSDVENPHAWGLCHINTTTVTENDFCTSSDWPCAAGKKYSPRGPIQLTHNFNYGLAGQAIGEDLIQNPDLVEKDPIISFKTALWFWMSQHDNKPSCHDIVLNANSAANRIPNKGVIGNIISRAFGHDDFAVRSSSIGFYKRYCDMLGVSYGHDLKYWFDNTPSSEFQRIQMRVAA"}}, "assay_in_all_cases": "glycan array binding signal (z-score within array); higher = stronger binding", "settings_in_all_cases": "glycan notation: IUPAC condensed, linker removed", "key": {"[1]": {"molecular_target": "Neu5Ac(a2-6)Gal(b1-4)GlcNAc(b1-3)Gal(b1-4)GlcNAc(b1-3)GalNAc", "how_it_was_run": "(§1)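 The binding signal is a Z-score computed within each array and averaged over linkers. Arrays of the same protein sequence at different concentrations or buffers were also averaged together. Data originate from 3228 arrays in the Consortium for Functional Glycomics database, kept only where the protein sequence was available.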"}, "[2]": {"molecular_target": "Neu5Ac(a2-6)Gal(b1-4)GlcNAc(b1-3)Gal(b1-4)GlcNAc(b1-3)[Neu5Ac(a2-6)Gal(b1-4)GlcNAc(b1-3)Gal(b1-4)GlcNAc(b1-6)]GalNAc", "how_it_was_run": "as §1"}, "[3]": {"molecular_target": "Neu5Ac(a2-6)Gal(b1-4)GlcNAc(b1-3)Gal(b1-4)GlcNAc(b1-6)[Gal(b1-3)]GalNAc", "how_it_was_run": "as §1"}, "[4]": {"molecular_target": "Neu5Ac(a2-6)Gal(b1-4)GlcNAc(b1-3)Gal(b1-4)[Fuc(a1-3)]GlcNAc(b1-3)Gal(b1-4)[Fuc(a1-3)]GlcNAc", "how_it_was_run": "as §1"}, "[5]": {"molecular_target": "Neu5Ac(a2-6)Gal(b1-4)GlcNAc(b1-3)GalNAc", "how_it_was_run": "as §1"}, "[6]": {"molecular_target": "Neu5Ac(a2-6)Gal(b1-4)GlcNAc(b1-3)[Neu5Ac(a2-6)Gal(b1-4)GlcNAc(b1-6)]GalNAc", "how_it_was_run": "as §1"}, "[7]": {"molecular_target": "Neu5Ac(a2-6)Gal(b1-4)GlcNAc(b1-6)GalNAc", "how_it_was_run": "as §1"}, "[8]": {"molecular_target": "Neu5Ac(a2-6)Gal(b1-4)GlcNAc(b1-6)[Gal(b1-3)GlcNAc(b1-3)]Gal(b1-4)Glc", "how_it_was_run": "as §1"}, "[9]": {"molecular_target": "Neu5Ac(a2-6)Gal(b1-4)GlcNAc(b1-6)[Gal(b1-3)]GalNAc", "how_it_was_run": "as §1"}, "[10]": {"molecular_target": "Neu5Ac(a2-6)Gal(b1-4)GlcNAc6S", "how_it_was_run": "as §1"}, "Neu5Ac(a2-6)GalNAc": {"molecular_target": "Neu5Ac(a2-6)GalNAc", "how_it_was_run": "as §1"}, "[11]": {"molecular_target": "Neu5Ac(a2-6)GalNAc(b1-4)GlcNAc", "how_it_was_run": "as §1"}, "[12]": {"molecular_target": "Neu5Ac(a2-6)GalNAc(b1-4)GlcNAc6S", "how_it_was_run": "as §1"}, "[13]": {"molecular_target": "Neu5Ac(a2-6)GlcNAc(b1-4)GlcNAc", "how_it_was_run": "as §1"}, "[14]": {"molecular_target": "Neu5Ac(a2-6)GlcNAc(b1-4)GlcNAc(b1-4)GlcNAc", "how_it_was_run": "as §1"}, "Neu5Ac(a2-8)Neu5Ac": {"molecular_target": "Neu5Ac(a2-8)Neu5Ac", "how_it_was_run": "as §1"}, "[15]": {"molecular_target": "Neu5Ac(a2-8)Neu5Ac(a2-3)Gal(b1-3)GalNAc(b1-4)[Neu5Ac(a2-3)]Gal(b1-4)Glc", "how_it_was_run": "as §1"}, "[16]": {"molecular_target": "Neu5Ac(a2-8)Neu5Ac(a2-3)Gal(b1-3)GalNAc(b1-4)[Neu5Ac(a2-8)Neu5Ac(a2-3)]Gal(b1-4)Glc", "how_it_was_run": "as §1"}, "[17]": {"molecular_target": "Neu5Ac(a2-8)Neu5Ac(a2-3)Gal(b1-4)Glc", "how_it_was_run": "as §1"}, "[18]": {"molecular_target": "Neu5Ac(a2-8)Neu5Ac(a2-3)Gal(b1-4)GlcNAc", "how_it_was_run": "as §1"}, "[19]": {"molecular_target": "Neu5Ac(a2-8)Neu5Ac(a2-3)[Gal(b1-3)GalNAc(b1-4)]Gal(b1-4)Glc", "how_it_was_run": "as §1"}, "[20]": {"molecular_target": "Neu5Ac(a2-8)Neu5Ac(a2-3)[GalNAc(b1-4)]Gal(b1-4)Glc", "how_it_was_run": "as §1"}, "[21]": {"molecular_target": "Neu5Ac(a2-8)Neu5Ac(a2-8)Neu5Ac", "how_it_was_run": "as §1"}, "[22]": {"molecular_target": "Neu5Ac(a2-8)Neu5Ac(a2-8)Neu5Ac(a2-3)Gal(b1-4)Glc", "how_it_was_run": "as §1"}, "[23]": {"molecular_target": "Neu5Ac(a2-8)Neu5Ac(a2-8)Neu5Ac(a2-3)[Gal(b1-3)GalNAc(b1-4)]Gal(b1-4)Glc", "how_it_was_run": "as §1"}, "[24]": {"molecular_target": "Neu5Ac(a2-8)Neu5Ac(a2-8)Neu5Ac(a2-3)[GalNAc(b1-4)]Gal(b1-4)Glc", "how_it_was_run": "as §1"}, "[25]": {"molecular_target": "Neu5Ac(a2-8)Neu5Ac(a2-8)Neu5Ac(a2-8)Neu5Ac(a2-3)[GalNAc(b1-4)]Gal(b1-4)Glc", "how_it_was_run": "as §1"}, "[26]": {"molecular_target": "Neu5Ac(a2-8)Neu5Gc(a2-3)Gal(b1-4)GlcNAc", "how_it_was_run": "as §1"}, "Neu5Ac(b1-6)GalNAc": {"molecular_target": "Neu5Ac(b1-6)GalNAc", "how_it_was_run": "as §1"}, "[27]": {"molecular_target": "Neu5Ac(b2-6)Gal(b1-4)GlcNAc", "how_it_was_run": "as §1"}, "Neu5Ac(b2-6)GalNAc": {"molecular_target": "Neu5Ac(b2-6)GalNAc", "how_it_was_run": "as §1"}, "[28]": {"molecular_target": "Neu5Ac9Ac(a2-3)Gal(b1-3)GlcNAc", "how_it_was_run": "as §1"}, "[29]": {"molecular_target": "Neu5Ac9Ac(a2-3)Gal(b1-4)GlcNAc", "how_it_was_run": "as §1"}, "[30]": {"molecular_target": "Neu5Ac9Ac(a2-6)Gal(b1-4)GlcNAc", "how_it_was_run": "as §1"}, "[31]": {"molecular_target": "Neu5Gc(a2-3)Gal(b1-3)GlcNAc", "how_it_was_run": "as §1"}, "[32]": {"molecular_target": "Neu5Gc(a2-3)Gal(b1-3)[Fuc(a1-4)]GlcNAc", "how_it_was_run": "as §1"}, "Neu5Gc(a2-3)Gal(b1-4)Glc": {"molecular_target": "Neu5Gc(a2-3)Gal(b1-4)Glc", "how_it_was_run": "as §1"}, "[33]": {"molecular_target": "Neu5Gc(a2-3)Gal(b1-4)GlcNAc", "how_it_was_run": "as §1"}}, "note": "The other results are listed elsewhere or left out."}
{"binder": "B1", "values": [{"measurement": "glycan array binding signal (z-score)", "setting": "[1]", "value": -0.183}, {"measurement": "glycan array binding signal (z-score)", "setting": "[2]", "value": -0.099}, {"measurement": "glycan array binding signal (z-score)", "setting": "[3]", "value": -0.172}, {"measurement": "glycan array binding signal (z-score)", "setting": "[4]", "value": -0.185}, {"measurement": "glycan array binding signal (z-score)", "setting": "[5]", "value": -0.178}, {"measurement": "glycan array binding signal (z-score)", "setting": "[6]", "value": -0.179}, {"measurement": "glycan array binding signal (z-score)", "setting": "[7]", "value": -0.173}, {"measurement": "glycan array binding signal (z-score)", "setting": "[8]", "value": -0.18}, {"measurement": "glycan array binding signal (z-score)", "setting": "[9]", "value": -0.179}, {"measurement": "glycan array binding signal (z-score)", "setting": "[10]", "value": -0.194}, {"measurement": "glycan array binding signal (z-score)", "setting": "Neu5Ac(a2-6)GalNAc", "value": -0.19}, {"measurement": "glycan array binding signal (z-score)", "setting": "[11]", "value": -0.175}, {"measurement": "glycan array binding signal (z-score)", "setting": "[12]", "value": -0.182}, {"measurement": "glycan array binding signal (z-score)", "setting": "[13]", "value": -0.121}, {"measurement": "glycan array binding signal (z-score)", "setting": "[14]", "value": 0.371}, {"measurement": "glycan array binding signal (z-score)", "setting": "Neu5Ac(a2-8)Neu5Ac", "value": -0.181}, {"measurement": "glycan array binding signal (z-score)", "setting": "[15]", "value": -0.178}, {"measurement": "glycan array binding signal (z-score)", "setting": "[16]", "value": -0.181}, {"measurement": "glycan array binding signal (z-score)", "setting": "[17]", "value": -0.192}, {"measurement": "glycan array binding signal (z-score)", "setting": "[18]", "value": -0.047}, {"measurement": "glycan array binding signal (z-score)", "setting": "[19]", "value": -0.176}, {"measurement": "glycan array binding signal (z-score)", "setting": "[20]", "value": -0.188}, {"measurement": "glycan array binding signal (z-score)", "setting": "[21]", "value": -0.189}, {"measurement": "glycan array binding signal (z-score)", "setting": "[22]", "value": -0.186}, {"measurement": "glycan array binding signal (z-score)", "setting": "[23]", "value": -0.166}, {"measurement": "glycan array binding signal (z-score)", "setting": "[24]", "value": -0.189}, {"measurement": "glycan array binding signal (z-score)", "setting": "[25]", "value": -0.171}, {"measurement": "glycan array binding signal (z-score)", "setting": "[26]", "value": -0.041}, {"measurement": "glycan array binding signal (z-score)", "setting": "Neu5Ac(b1-6)GalNAc", "value": -0.249}, {"measurement": "glycan array binding signal (z-score)", "setting": "[27]", "value": -0.19}, {"measurement": "glycan array binding signal (z-score)", "setting": "Neu5Ac(b2-6)GalNAc", "value": -0.172}, {"measurement": "glycan array binding signal (z-score)", "setting": "[28]", "value": -0.176}, {"measurement": "glycan array binding signal (z-score)", "setting": "[29]", "value": 0.27}, {"measurement": "glycan array binding signal (z-score)", "setting": "[30]", "value": -0.195}, {"measurement": "glycan array binding signal (z-score)", "setting": "[31]", "value": -0.187}, {"measurement": "glycan array binding signal (z-score)", "setting": "[32]", "value": -0.187}, {"measurement": "glycan array binding signal (z-score)", "setting": "Neu5Gc(a2-3)Gal(b1-4)Glc", "value": -0.186}, {"measurement": "glycan array binding signal (z-score)", "setting": "[33]", "value": 0.328}]}
